Results from the supplement of paper PMC10338343.
± gives the standard deviation. Only a part is listed here, and it is no random draw.

What follows are sequences tested on MIWI (PIWIL1) piRISC loaded with L1MC piRNA (30 nt) (assay: pre-steady-state target cleavage rate (min^-1); MIWI and MILI are mouse PIWI proteins and EfPiwi is from a freshwater sponge; tags in brackets are library labels; higher = faster piRNA-guided slicing of the target). Conditions: guide: L1MC piRNA 5'p-UAACUAAAUACUAUGCAAGCUGUAGGUCCU; auxiliary factor: 500 nM mouse GTSF1.
Outline: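 Reactions were run for 0–8 or 0–960 min at 33 °C in HEPES–potassium acetate buffer, combining 1 nM active affinity-purified piRISC with one synthetic guide, […] transcribed, DNA-blocked target RNA library and, in some cases, 500 nM GTSF1 partner protein. Sequencing of uncleaved targets followed, with normalisation to depth and to weakly complementary targets. Three trials were pooled, k3 was capped at 0.0001 min^-1, and the pre-steady-state cleavage rate was taken from a burst-and-steady-state fit.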
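Note: 1 nM active piRISC with 0.1 nM target library at 33 °C single turnover.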

Sequence	pre-steady-state target cleavage rate
UCCUGGUACAGCUUGCAUAGUAAAAUCAAA [g9:g24:cont:t1A]	0.0403 ± 0.015
UCCUGGAUGAGCUUGCAUAGUAUUAAGAAA	0.0428 ± 0.014
UCCUGCUACAGGUUGCAUAGUAUUUAGAAA	0.107 ± 0.018
UCCUGGAUGUGCAAGCAUAGUAUUUAGUAA	0.00425 ± 0.0035
UCCUGGAUGUCGAAGCAUAGUAUUGAGUUA	0.00956 ± 0.0032
UCCUGGAUCAGGAUGCAUAGUAUUUAGUAA	0.0111 ± 0.0026
UCCUGGUACAGCAUCCAUAGUAUUUAGUUA	0.248 ± 0.059
UCCUCCUUGUGCUUGCAUAGUAUUUUCAAA	0.0489 ± 0.012
UGGACCUACAGCUUCCAUACUAUUUAGUUA	0.00362 ± 0.0031
UCCUGGAACAGCUUGCAUAGUUAUUAGAAA	0.0177 ± 0.0088
UCCUGGAUGUCGUUGCAUAGUAUUUAGUUC [g2:g18:cont:t1C]	0.00724 ± 0.0025
UCGACCUACAGCUUGCAUACAUUUUAGUUA	0.0121 ± 0.0056
UCCUCCUACAGCUUGCAUACAAUUUAGAAA	0.0177 ± 0.008
UCCUGGAACAGCUUCCAUUGUAUUUAGUUA	0.112 ± 0.015
UCCUCCUACAGCUUGCAUAUGUAUUUAGUUA	0.0119 ± 0.0066
AGGACCUACAGCUACGAUAGUAUUUAGUUA	0.169 ± 0.019
UCCUGGUACAGCUAGCAUAGUAUUUACAAA	0.119 ± 0.024
UCCUGGUACAGCUUGCAUAGUAUAAUGAAA	0.113 ± 0.025

Sequence	pre-steady-state target cleavage rate
UCCACCUAGUGCUUGCAUAGUAUUUAGAAA	0.101 ± 0.019
AGGACCUACAGGAAGCAUAGUAUUUAGAAA	0.292 ± 0.051
UCCUGCAACAGCUUGCAUAGUAUUUUCAAA	0.194 ± 0.036
UCCUGGAUGUCCUUGCUUAGUUUUUAGUUA	0.00542 ± 0.0039
UCCUGGUAGAGCUUCCAUAGUAUUUAGUUA	0.0436 ± 0.015
AGCACCUACAGCUUGCAUAGUAUUUAGAAA	0.753 ± 0.12
UCGACCUACAGCUUCCAUAGUUUUUAGUUA	0.0298 ± 0.011
UCCUGGUACAGCUUCGUUAGUAUUUAGUUA	0.0426 ± 0.0061
UCCUGGAUGAGCAUGCAUAGUAUUUAGAAA	0.0642 ± 0.014
AGGACCUACAGCUUGCAUAGUUAUUACAAA	0.158 ± 0.048
UCCUGGUACUCCUUGCAUAGUAUUUAGAAA	0.018 ± 0.0073
UCCUGGAUGUCGAACCAUAGUAUAUAGUAA	< 0.0001
UCCUGGAACAGCUUCGUUAGUAUUUAGUAA	0.0168 ± 0.0066
UCCUGGAACAGCUUGCAUAGUAUUAACAAA	0.29 ± 0.051
UGCUGCUACAGCUUGCAUAGUAUUUACAAA	0.253 ± 0.041
UGGACCUACAGCUUGCAUAGUAAAUUCAAA	0.147 ± 0.049
UGGACCUACAGCUUGCAGUAGUAUUUAGUUA	0.00477 ± 0.0038
UCCUGGAUCUGCUUGCAUAGUAUUUUCAAA	0.0664 ± 0.013

Same assay, conditions: guide: L1MC piRNA 5'p-UAACUAAAUACUAUGCAAGCUGUAGGUCCU; auxiliary factor: none (no GTSF1)

Sequence	pre-steady-state target cleavage rate
UCGACCUACAGCUUGCAUAUUAUUUAGUUA	0.0515 ± 0.013
UGGACCUACAGCUUGCAUGGUAUUUAGUUA	0.0478 ± 0.01
UCGACCUACGCUUGCAUAGUAUUUAGUUA	0.0463 ± 0.0093
